Source: the supplement of paper PMC3334620
Over roughly 33,000 sequences, “E-score (-0.5 to 0.5)” has its median near -0.04; the highest 2% begin near 0.36. The list shows a part of the results.

Molecular target: T1, Hmlalpha2 (UniProt P0CY09)
T1 sequence: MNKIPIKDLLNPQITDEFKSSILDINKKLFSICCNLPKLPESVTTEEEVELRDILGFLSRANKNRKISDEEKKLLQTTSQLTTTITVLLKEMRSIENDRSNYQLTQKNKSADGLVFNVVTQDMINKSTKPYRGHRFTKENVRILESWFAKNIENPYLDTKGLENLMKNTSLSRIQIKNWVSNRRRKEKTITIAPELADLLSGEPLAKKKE
Assay: PBM E-score (8-mer binding enrichment) (E-score (-0.5 to 0.5)); higher = stronger / more preferred TF binding; most listed sequences are background and not binding sites
Conditions: protein concentration: 200 nM; construct: GST-full length
Summary of the method: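 The E-score, a modified Wilcoxon-Mann-Whitney statistic, was computed by the Universal PBM Analysis Suite for every ungapped eight-base word pooled with its reverse complement. Scans behind it were normalised with masliner after bound GST-tagged yeast transcription factors were detected with fluorescent anti-GST. The proteins, at about 100-200 nM, had been applied to universal all-10-mer Agilent arrays made double-stranded by primer extension.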

| Sequence | PBM E-score |
| --- | --- |
| CCTCGAAA | 0.137 |
| CGAACTTA | -0.00348 |
| CGACGTGC | -0.106 |
| ATCGTCTA | 0.00893 |
| AATTGTCG | -0.0873 |
| CCAAGCCG | -0.171 |
| ACCAGCAC | -0.0704 |
| GGCGATGA | -0.168 |
| AGAGCTCT | -0.23 |
| AGCCCGAG | -0.212 |
| CGGCCAGC | -0.166 |
| CTCATCGC | -0.0512 |
| CGTCGATC | 0.144 |
| ACCATAGA | -0.224 |
| GTGCATGA | 0.0341 |
| TACACACA | 0.43 |
| CTAACAAA | 0.151 |
| AACCAGTA | 0.0041 |
| GTAACAAC | 0.305 |
| AAGTCTTA | 0.138 |
| GCTAACAA | 0.164 |
| GGCGTGCA | -0.128 |
| AAACTGAT | -0.00305 |
| CTCAGTTC | -0.111 |
| ATAATGAG | -0.101 |

| Sequence | PBM E-score |
| --- | --- |
| CACACCTG | -0.108 |
| GCCTACCA | -0.305 |
| AGGCACGG | -0.263 |
| CCATGCTA | 0.0439 |
| ATCTGTCG | 0.0277 |
| TCTTCAAA | -0.0296 |
| ATCCCTTA | -0.141 |
| AAGACGTG | 0.131 |
| GCATAGTA | 0.0392 |
| AGATTGAT | 0.00281 |
| GCCGTCTA | -0.184 |
| CATGTTGA | 0.477 |
| AAGGAGCG | -0.199 |
| GACGTTAC | 0.248 |
| GTCTGGAA | -0.205 |
| GATATCCC | -0.1 |
| AATTCACC | 0.0859 |
| AAGATGGC | -0.189 |
| ATGATCGA | 0.0342 |
| GATATGCA | -0.0633 |
| CAATGTGC | -0.0156 |
| ACGGATCC | -0.18 |
| AGGGTACC | -0.217 |
| GCGACATA | 0.105 |
| TACCCTAA | -0.0923 |

| Sequence | PBM E-score |
| --- | --- |
| GTGCAACA | -0.0669 |
| AGGTTTAT | 0.0762 |
| GTGTGATA | 0.283 |
| CACTTACC | 0.162 |
| TGCCATAA | -0.178 |
| CGGGGAAA | -0.0657 |
| GAAGTAAC | 0.0761 |
| CGATGTTA | 0.353 |
| CAACTTAA | 0.236 |
| CCTGTGCG | -0.0561 |
| AGTAGAAA | 0.124 |
| CGGTCGCC | -0.16 |
| CTACACCC | 0.0904 |
| GCGGCCAC | -0.309 |
| TCGCACCA | -0.0912 |
| CGCACGGA | -0.12 |
| GAGATTAC | 0.0945 |
| TAGCTTGA | -0.159 |
| CCCTCGCG | -0.199 |
| TAGTGCGA | -0.117 |
| ATAATTGA | 0.0689 |
| GACGAAGA | 0.0546 |
| ATCCCTCC | -0.168 |
| CGTGTAAC | 0.443 |
| CGGTATCC | -0.145 |

| Sequence | PBM E-score |
| --- | --- |
| TTACCCAA | 0.02 |
| ACCACACT | 0.0159 |
| ATAAATAT | 0.135 |
| CTGAGGGC | -0.3 |
| ATAGGAGG | -0.225 |
| TGGAATAA | -0.00689 |
| AGTGAGAA | -0.0698 |
| AGTACCAT | -0.00906 |
| GCTCGCTA | -0.0434 |
| AGCGCGCG | 0.052 |
| AATTCACT | 0.147 |
| ACAGTCCT | -0.193 |
| AAACCTCG | -0.183 |
| ATTGAAGA | 0.0407 |
| ATCCTCAC | -0.0377 |
| AGCTACCC | -0.105 |
| CAGACATG | 0.189 |
| ATTATGCC | 0.00988 |
| CGACCGTC | -0.121 |
| ACAACCGA | 0.103 |
| AATTTTTC | 0.0835 |
| CGCACTCC | -0.303 |
| ACCCGAAT | -0.168 |
| ATCTAAAA | -0.108 |
| CTGATAAC | 0.182 |

| Sequence | PBM E-score |
| --- | --- |
| AACGGACA | 0.0995 |
| CCTAATGC | -0.08 |
| AGGCGTAC | 0.145 |
| ACGGAGCC | -0.268 |
| ACTGACTG | -0.134 |
| TAATACTA | 0.262 |
| ATCCGCAC | -0.0873 |
| GGATACAC | 0.126 |
| CACAATCA | -0.0456 |
| ATCTTGCC | -0.0499 |
| CCATAAAG | -0.147 |
| AGACGCAT | 0.0445 |
| GACTTAGC | -0.207 |
| ACTTGTAG | 0.0979 |
| ACAGTGCC | -0.164 |
| ACCTCGGC | -0.152 |
| GAAAATTC | -0.0326 |
| TCCTCGAA | 0.0204 |
| CGTAAGGC | -0.00831 |
| TCCCCGGA | -0.135 |
| GAACCGCC | -0.231 |
| CTAGTTTC | -0.166 |
| CAGGGGAA | -0.248 |
| CGTTCGCC | -0.133 |
| AGTATTCG | -0.00324 |

| Sequence | PBM E-score |
| --- | --- |
| CAGGGCAG | -0.089 |
| CTTATTAA | 0.0883 |
| CAAAGTTC | -0.0484 |
| TACTAACA | 0.309 |
| CGGCGGCC | -0.188 |
| CATTGTGC | 0.0184 |
| GCCCATCC | -0.209 |
| AATCGGCT | -0.0964 |
| GAACCGGC | -0.33 |
| CCTTATCA | 0.169 |
| CCTGTGAG | -0.0957 |
| ACACCGCG | 0.15 |
| ACCCAGAC | -0.0829 |
| ACATTCTC | 0.0991 |
| CGTGCGGA | -0.219 |
| CAGGAGAA | -0.236 |
| AATCCGTG | -0.129 |
| CACAGATG | 0.0986 |
| GGTACACA | 0.246 |
| CTAGGTTC | -0.252 |
| AGTAGACT | 0.0423 |
| ATAGGTTA | 0.196 |
| GAATACTA | 0.227 |
| GACGTTCC | -0.0125 |
| TCTTCCAA | 0.0415 |

| Sequence | PBM E-score |
| --- | --- |
| TAGCCACA | -0.0384 |
| GACGAGGC | -0.26 |
| AACACCTT | 0.135 |
| AAACATCG | 0.0183 |
| GGATTCAA | -0.166 |
| CCTAAATC | -0.0342 |
| CATAAAAA | 0.186 |
| CAGCATAA | -0.0659 |
| TGGGGAAA | -0.0193 |
| CGGTCCTA | -0.253 |
| ACATTGCT | 0.235 |
| AATTCTAA | 0.13 |
| CTTGTTGA | 0.352 |
| CCGCCCAA | -0.139 |
| AGGCGAAG | -0.201 |
| GCGTTCCA | -0.128 |
| ATTTGCAG | -0.0744 |
| CAGACGCC | -0.145 |
| ATGATTCG | -0.0377 |
| GAGTTCTA | -0.142 |
| TACAGGAA | 0.158 |
| CTACCTTA | 0.00802 |
